According to the supplement of paper PMC4967469:

The cell lines below were run with NC1(c2ccc(-c3nc4ccn5c(=O)[nH]nc5c4cc3-c3ccccc3)cc2)CCC1 [MK-2206] (assay: Viability of human cancer cell lines after 72 h of drug (GDSC screen)).
Description: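 Human cancer cell lines in 384-well plates, medium with 10% serum, drug for 72 h over a 256-fold dose range (nine 2-fold or five 4-fold steps up to the top dose). Adherent lines were fixed and stained with the nucleic acid dye Syto60, suspension lines read with resazurin; signal relative to control wells, capped at 0 and 100%. One two-parameter sigmoid per drug and line, fitted in a mixed model over all curves with the slope shared within a line.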

Row | Cell Line | AUC | IC50 [µM]
1 | NCI-H187 (small cell lung carcinoma, suspension, top dose 4 µM) | 0.821 | 2.59
2 | NCI-H209 (small cell lung carcinoma, suspension, top dose 4 µM) | 0.975 | > 4
3 | NCI-H211 (small cell lung carcinoma, adherent, top dose 4 µM) | 0.987 | > 4
4 | NCI-H226 (lung squamous cell carcinoma, adherent, top dose 4 µM) | 0.955 | > 4
5 | NCI-H322M (lung adenocarcinoma, suspension, top dose 4 µM) | 0.984 | > 4
6 | NCI-H345 (small cell lung carcinoma, suspension, top dose 4 µM) | 0.952 | > 4
7 | NCI-H446 (small cell lung carcinoma, semi-adherent, top dose 4 µM) | 0.765 | 1.57
8 | NCI-H508 (large intestine, semi-adherent, top dose 4 µM) | 0.693 | 1.27
9 | NCI-H510A (small cell lung carcinoma, semi-adherent, top dose 4 µM) | 0.988 | > 4
10 | NCI-H520 (lung squamous cell carcinoma, adherent, top dose 4 µM) | 0.677 | 0.796
11 | NCI-H522 (lung adenocarcinoma, adherent, top dose 2 µM) | 0.966 | > 2
12 | NCI-H524 (small cell lung carcinoma, suspension, top dose 4 µM) | 0.919 | > 4
13 | NCI-H526 (small cell lung carcinoma, suspension, top dose 4 µM) | 0.871 | 3.48
14 | NCI-H596 (lung adenocarcinoma, adherent, top dose 4 µM) | 0.961 | > 4
15 | NCI-H630 (large intestine, adherent, top dose 4 µM) | 0.988 | > 4
16 | NCI-H647 (non-small cell lung carcinoma, adherent, top dose 4 µM) | 0.972 | > 4
17 | NCI-H650 (lung adenocarcinoma, adherent, top dose 4 µM) | 0.985 | > 4
18 | NCI-H661 (large cell lung carcinoma, adherent, top dose 4 µM) | 0.791 | 2.23
19 | NCI-H720 (lung carcinoid, suspension, top dose 4 µM) | 0.702 | 0.875
20 | NCI-H727 (lung carcinoid, adherent, top dose 4 µM) | 0.826 | > 4
21 | NCI-H747 (large intestine, adherent, top dose 4 µM) | 0.794 | 2.31
22 | NCI-H810 (large cell lung carcinoma, adherent, top dose 4 µM) | 0.988 | > 4
23 | NCI-H835 (lung carcinoid, suspension, top dose 4 µM) | 0.904 | > 4
24 | NCI-H838 (lung adenocarcinoma, adherent, top dose 4 µM) | 0.693 | 0.892

Row | Cell Line | AUC | IC50 [µM]
25 | NCI-H841 (small cell lung carcinoma, adherent, top dose 4 µM) | 0.867 | 3.65
26 | NCI-H847 (small cell lung carcinoma, adherent, top dose 4 µM) | 0.989 | > 4
27 | NCI-H929 (myeloma, suspension, top dose 4 µM) | 0.237 | 0.0501
28 | NCI-H1048 (small cell lung carcinoma, adherent, top dose 4 µM) | 0.824 | 2.06
29 | NCI-H1092 (small cell lung carcinoma, suspension, top dose 4 µM) | 0.984 | > 4
30 | NCI-H1105 (small cell lung carcinoma, suspension, top dose 4 µM) | 0.933 | > 4
31 | NCI-H1155 (large cell lung carcinoma, suspension, top dose 4 µM) | 0.858 | 2.39
32 | NCI-H1304 (small cell lung carcinoma, suspension, top dose 4 µM) | 0.962 | > 4
33 | NCI-H1341 (small cell lung carcinoma, suspension, top dose 4 µM) | 0.946 | > 4
34 | NCI-H1355 (lung adenocarcinoma, adherent, top dose 2 µM) | 0.883 | > 2
35 | NCI-H1395 (lung adenocarcinoma, adherent, top dose 4 µM) | 0.786 | 2.38
36 | NCI-H1417 (small cell lung carcinoma, suspension, top dose 4 µM) | 0.696 | 0.993
37 | NCI-H1435 (lung adenocarcinoma, semi-adherent, top dose 4 µM) | 0.992 | > 4
38 | NCI-H1436 (small cell lung carcinoma, suspension, top dose 4 µM) | 0.878 | > 4
39 | NCI-H1437 (lung adenocarcinoma, adherent, top dose 4 µM) | 0.789 | 1.85
40 | NCI-H1563 (lung adenocarcinoma, adherent, top dose 4 µM) | 0.57 | 0.404
41 | NCI-H1568 (lung adenocarcinoma, adherent, top dose 4 µM) | 0.941 | > 4
42 | NCI-H1623 (lung adenocarcinoma, adherent, top dose 4 µM) | 0.835 | 3.51
43 | NCI-H1651 (lung adenocarcinoma, adherent, top dose 4 µM) | 0.973 | > 4
44 | NCI-H1688 (small cell lung carcinoma, adherent, top dose 4 µM) | 0.904 | > 4
45 | NCI-H1693 (lung adenocarcinoma, adherent, top dose 2 µM) | 0.854 | > 2
46 | NCI-H1694 (small cell lung carcinoma, suspension, top dose 4 µM) | 0.871 | 3.73
47 | NCI-H1703 (lung adenocarcinoma, adherent, top dose 4 µM) | 0.566 | 0.394
48 | NCI-H1755 (lung adenocarcinoma, adherent, top dose 4 µM) | 0.936 | > 4

Row | Cell Line | AUC | IC50 [µM]
49 | NCI-H1770 (non-small cell lung carcinoma, suspension, top dose 4 µM) | 0.845 | 2.37
50 | NCI-H1781 (lung adenocarcinoma, adherent, top dose 4 µM) | 0.926 | > 4
51 | NCI-H1792 (lung adenocarcinoma, adherent, top dose 4 µM) | 0.978 | > 4
52 | NCI-H1836 (small cell lung carcinoma, suspension, top dose 4 µM) | 0.988 | > 4
53 | NCI-H1869 (lung squamous cell carcinoma, adherent, top dose 4 µM) | 0.953 | > 4
54 | NCI-H1876 (small cell lung carcinoma, adherent, top dose 4 µM) | 0.9 | > 4
55 | NCI-H1944 (lung adenocarcinoma, adherent, top dose 4 µM) | 0.743 | 1.32
56 | NCI-H1975 (lung adenocarcinoma, adherent, top dose 4 µM) | 0.648 | 0.686
57 | NCI-H1993 (lung adenocarcinoma, adherent, top dose 4 µM) | 0.98 | > 4
58 | NCI-H2009 (lung adenocarcinoma, adherent, top dose 4 µM) | 0.771 | 1.62
59 | NCI-H2023 (lung adenocarcinoma, adherent, top dose 2 µM) | 0.848 | > 2
60 | NCI-H2052 (mesothelioma, adherent, top dose 4 µM) | 0.983 | > 4
61 | NCI-H2066 (small cell lung carcinoma, adherent, top dose 4 µM) | 0.752 | 2.32
62 | NCI-H2081 (small cell lung carcinoma, suspension, top dose 4 µM) | 0.955 | > 4
63 | NCI-H2085 (lung adenocarcinoma, adherent, top dose 2 µM) | 0.839 | 1.52
64 | NCI-H2087 (lung adenocarcinoma, semi-adherent, top dose 4 µM) | 0.969 | > 4
65 | NCI-H2110 (non-small cell lung carcinoma, adherent, top dose 4 µM) | 0.849 | 3.13
66 | NCI-H2135 (non-small cell lung carcinoma, adherent, top dose 4 µM) | 0.991 | > 4
67 | NCI-H2141 (small cell lung carcinoma, suspension, top dose 4 µM) | 0.974 | > 4
68 | NCI-H2172 (non-small cell lung carcinoma, adherent, top dose 4 µM) | 0.934 | > 4
69 | NCI-H2227 (small cell lung carcinoma, semi-adherent, top dose 4 µM) | 0.985 | > 4
70 | NCI-H2291 (lung adenocarcinoma, adherent, top dose 4 µM) | 0.889 | > 4
71 | NCI-H2342 (lung adenocarcinoma, adherent, top dose 4 µM) | 0.882 | > 4
72 | NCI-H2347 (lung adenocarcinoma, adherent, top dose 4 µM) | 0.976 | > 4

A lower IC50 marks a more sensitive line; a fit beyond the top or the lowest dose is shown as a bound at that dose. The AUC spans the tested range (256-fold, ending at the top dose) of the same fit; values near 1 show little effect.
